Reference: a compilation of properties of binary mixtures (doi:10.1021/acs.jced.0c00447)
The densities may have been worked out from excess volumes.

Assay: xn = mol fraction of the nth substance listed
Settings: 100 kPa

OCC(F)(F)F + CC[n+]1ccn(C)c1.N#C[N-]C#N
x2 = 0
Settings	mass density [kg/m3]
303.15 K	1373.7
313.15 K	1356.1
318.15 K	1347.2
323.15 K	1338

CC[n+]1ccn(C)c1.N#C[N-]C#N + OCC(F)(F)F
mass density [kg/m3]
Settings	x1 = 0.1031	x1 = 0.1957	x1 = 0.2936	x1 = 0.3935	x1 = 0.4905	x1 = 0.5915	x1 = 0.6943	x1 = 0.7956	x1 = 0.8915	x1 = 1
298.15 K	1326.9	1285.8	–	–	1192.7	1169.5	1148.9	1131.1	1116	1100.7
303.15 K	–	1279.4	1243.9	1213.3	1188	–	1144.9	1127.3	1112.5	1097.4
308.15 K	1312.3	1272.9	1238.1	1208.1	1183.2	1160.8	1140.9	1123.6	–	1094.1
313.15 K	1304.9	1266.4	1232.3	1202.9	1178.5	1156.4	1136.9	1119.9	1105.7	–
318.15 K	1297.4	–	–	1197.6	1173.7	1152.1	1132.9	1116.3	1102.2	1087.6
323.15 K	1289.7	1253.1	1220.4	1192.3	1168.9	1147.7	1128.9	1112.6	1098.8	1084.3
